Reference: the supplement of paper PMC12632987
In all, about 1,800 sequences were measured (“median log2 fold change of GCK-ALFA target abundance (FLAG IP / Myc IP barcode read proportion)”: median about 0.14, lowest 2% from about -0.84 on). This is one part of the list.

B1: traf2_out_17_178_1663 (protein)
chain: TKEEKRKEISELTDKLIDLAEEAADQFLALAKKEGDLSEEELAQIEQARRRGSANDVLALMKEWIPKLKNSEEAGKLLEEFEKKYRELSKKIAEAYKEYE
B2: traf2_out_17_178_1698 (protein)
chain: SKEEIRAKISELTDELIDLTDEYGTRLLAAARAEGVLTPEQLARLEAARASGSNRTFLATAEELLPASAASEELRALLEEFRAERRRLEKKIAEAYEKYE
B3: traf2_out_18_167_1840 (protein)
chain: EEEIREKREELMDRLVDLSEVKREARRALHALETDPAAVPAELEALEEEAKKVPELQPLVDAARAALEAGDREGLRAELEKLIEKAQKLMNETMKELEAL
B4: traf2_out_13_95_1063 (protein)
chain: SRETARKINELADKAEEEVLARLDAAKAALADDPAAVAALDEARRAAETRGISAAIHVLRQAKAANPALAAQWDALIAELEAIRRKLGEEVAKILKEEEE
B5: traf2_out_1_27_989 (protein)
chain: SDEEITERIREASRRIAEADLETALEIARELLRELYEEGLGDARMAAVTLITMMKTEEDAEALIEAAEETFRELGVPEEEIERLRRQMRTAYELLKEALA
B6: traf2_out_11_169_855 (protein)
chain: AEAERNRKINDFALELNDEAKEKLKKHALELAKKEGLDVEEVKKIFEKNKNKSLSALAAALIEYFKKKGKEDAAKEIEEKYEELKDEINKKMSAFLKELE
B7: traf2_out_20_3_2249 (protein)
chain: EELRKKAEEELEEIEKLLKRARPLLPPEDAAEAEELLEKAREAFKTDYTDALVYLSELRRLALERAQRARAAGDAETAALLEELAEAAQRALQYLYLIIE
B8: traf2_out_6_156_2403 (protein)
chain: TIEKIFEETLKKIRELVKKLAAASEEKKISYISKIAGTFYRGLQKLREAGASVEELKEFIERVLKELEKLLDEEGLDQSTKDLIISSITAVGEVALREAE
B9: traf2_out_13_95_1130 (protein)
chain: SRETAEKIMEIADEMLDKVLEILKELLKKFEKAGVGVEEIKEAIYLAEHQSINEAIKLLEELAKKYPEFKEELNKAIEEIKKLRREAGKKVAEILKEEKE
B10: traf2_out_20_3_2109 (protein)
chain: SELEAELKKELEAALKLLEEAAKLADPETAKVLRELAKRLKASESLSPTDRLVVVSEIRREVLRLQQEAEAAGNAELAAVLAAAADELNRAMNLLMKIIE
B11: traf2_out_3_89_2305 (protein)
chain: SMEREAKIEEMRKRMEAYIRGFEKSARFVAKQMIKEGYSLETIEGVLTAARNAIVDTLAEEAREAGLSEEDIKELTEEAKKELDKIVKEVVEEAKKKREE
B12: traf2_out_17_178_1727 (protein)
chain: SKEEILKEISEKADERLDVNREAVDRLRAIAEAEGVLTPELAARLDAVARNSNRYALEEVFEEVIARTSRAEEVEALLKETTEKLKELDKEISELVEKLE
B13: traf2_out_17_162_1604 (protein)
chain: SELEEKKKELLELLKELKKKLEELEKKLENIEKLSKEELTDLLVEASEARRKAREALEEIKKLKDELPEEEYEKLSTEFEELAEKFQRIANKLYEELEKK
B14: traf2_out_20_3_2253 (protein)
chain: EELRKKAEEALREVRALLEQAAPLLPAEDAAEARRLLEEAEEAFKTDYTDALVHVSALRRLALERAQRARAAGDAATAALLEQLAEAAQRLAHYLYLIIE
B15: traf2_out_13_26_1030 (protein)
chain: GMSPEELEEEEEKRMERLIEAANELADLRDKAVEAAKKDPEEARKLAEELRERLLEIAKDPEARSMALVQARRARLDFEALGREEEAALFEETIKEIEAL
B16: traf2_out_1_156_896 (protein)
chain: MSPEEQQAAIHARLKDPEVRAAFVDAALTRRELRELARELREAGGDPEVIERLEEAARRIHEAMNALLSSEPEDVEAKLAELKELIREGRELIREAEREL
B17: traf2_out_6_156_2440 (protein)
chain: TAEAIRAEAEKAIKAEIKALAASSEEKHIIHINRIAGTVYRALRRLRAAGASLEELRAFAEELRAVAKEEAKKNGLDESTQNLLLSSLNAVFDVALREAA
B18: traf2_out_14_154_1267 (protein)
chain: DELFDELEYYSGMSRLYESVVDAMATADVAETLALLDAATALLVARVPEKAAEIEAEAARIRAALNGSPEERAALREELEKKSEEYSKKAREYYKKIEEK
B19: traf2_out_12_187_965 (protein)
chain: SVEEELLRAAEEAVRRAKRALEEAAPERPEFKRLLEKLEELEELYKEDPSIASDLLVAASAILRAVRLFEAGAPEEEIDAAIAEAERILEEALERARKRK
B20: traf2_out_19_138_1959 (protein)
chain: SALQEVEDALADVGNAIRETIAAIQELEEKAKTKSPEEQAKVAAFSAKVLARLEAIREKASAAYNKVLKDPSQAPAAIKELKALLKEVEALLKEVKKELA
B21: traf2_out_20_3_2154 (protein)
chain: SELEKEADAARDKAIALLREAAALADPATAAELAALRDRVEASKSLSYSDRLVVLSEVRRQVLALAEAARAAGDAELAAVLEKAADALNKAMNLTYKIIE
B22: traf2_out_11_155_673 (protein)
chain: KKKQELNNKLVDELTEVSDKLKEEVKAILKAAAAAHPAHAAALAAVIASSKTLSGTSFARVAAQTLEALGLADAAAEVKKLLEKAQKEMNKIYKEYEKKL
B23: traf2_out_18_117_1808 (protein)
chain: SELERALEEFRRAVEEFERVRRRAERVAGRLLEKHPYNLPEEASDALVEFGELKRRAEELVLEAERNRDDLERLKEIVEEMRRLTEEMERVLERLEELLK
B24: traf2_out_6_169_2492 (protein)
chain: MEAEELRKEAERHLKTAKELVEIAKTIYKQAKENKKYERIDDYIEALETMRNAIKRHYDEAIKYYEKLGEEEKAEELKKEKEEVLKEIDEMIEELKKLKK
B25: traf2_out_11_131_666 (protein)
chain: MDPVAMAKTVAERVDERLELAKTLSPEEAHRLARQSLDTIEALAEYLKEHVDTMSEEDVEEAVKILEESVEKILEFDPSVKEEAEEVRKALEELKKAAKA
B26: traf2_out_11_169_817 (protein)
chain: EEAEKNRKINDFALELNDEAKKELLEHAEKLAKEAGLDVEEVKAIFEKNKNKSLSAVAAALIKYFKSKGKEEAAKAVLEKYEELKDKINKEATAKIKELE
B27: traf2_out_8_15_2552 (protein)
chain: SIEENAEKDIEKLKALSDGDKESLINTLLGTAKAELRYAKILKEEGRKEEALNTLEAARIYADAALKLAEEINSPKLEEIKKEVEEIHKEIEELKKEIEE
B28: traf2_out_11_155_769 (protein)
chain: SKKLEINQEFVDKVMEIRDEAIEKMRKLIEEDKSLTEEEKKRLLEILEKNKSLGLRTAALSLIREAKSLGKEELAEKIEEILKEAQKKMSEEAIKADKEI
B29: traf2_out_11_155_724 (protein)
chain: EKKRKAQNEIVDHSLEIGDELLKKVEEIIEKIEKKDPEVAAELRKVVEEHKKFSNRSAARAAIDLLKKRGYEEEAKELEKALEEAQKKMSKFIKEVEEKL

Molecular target: T1, TRAF2, Q12933
T1 chain: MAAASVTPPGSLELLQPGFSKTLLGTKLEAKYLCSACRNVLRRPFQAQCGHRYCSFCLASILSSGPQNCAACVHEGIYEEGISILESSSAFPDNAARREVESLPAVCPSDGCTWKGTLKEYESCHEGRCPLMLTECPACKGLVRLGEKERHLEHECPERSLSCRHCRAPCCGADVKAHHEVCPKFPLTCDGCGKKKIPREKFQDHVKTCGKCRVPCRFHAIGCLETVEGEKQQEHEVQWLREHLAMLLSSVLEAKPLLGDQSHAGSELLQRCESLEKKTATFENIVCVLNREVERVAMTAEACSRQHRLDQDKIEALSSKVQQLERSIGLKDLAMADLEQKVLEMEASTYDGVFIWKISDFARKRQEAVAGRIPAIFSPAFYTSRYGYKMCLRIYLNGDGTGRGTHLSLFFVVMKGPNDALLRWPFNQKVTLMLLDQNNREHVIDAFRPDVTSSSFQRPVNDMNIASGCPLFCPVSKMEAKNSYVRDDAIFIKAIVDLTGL
Test: median log2 fold change of GCK-ALFA target abundance (FLAG IP / Myc IP barcode read proportion) (log2 ratio); each designed protein is fused to an ALFA-tag nanobody in HEK293 cells to bring the named protein to FLAG-tagged glucokinase (GCK); Myc marks an untargeted standard; higher = target protein stabilised (more abundant)
Conditions: target protein: 3xFLAG-MCP-GCK-ALFA reporter; HEK293 landing pad (RPLP)
Summary of the method: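 HEK293 landing-pad cells received a recombined binder library fused to the ALFA nanobody and were induced with 2 μg mL^−1 doxycycline, then transfected with a plasmid encoding a FLAG-tagged target and a Myc-tagged standard. Lysates were collected after 48 h for anti-FLAG and anti-Myc immunoprecipitation, and the circular RNA barcodes were reverse transcribed, amplified and sequenced. Target abundance for each binder is the median log2 ratio of FLAG to Myc barcode read proportions. Barcodes had to reach a proportion of at least 10^−7 in both replicates, each binder needed at least 3 barcodes per replicate, a pseudocount of 10^−6 was applied, and the two replicates were pooled.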

| Binder | median log2 fold change |
| --- | --- |
| B1 | 0.199 |
| B2 | 0.184 |
| B3 | 0.209 |
| B4 | 0.148 |
| B5 | 0.204 |
| B6 | -0.122 |
| B7 | 0.204 |
| B8 | -0.0332 |
| B9 | -0.433 |
| B10 | -0.126 |
| B11 | -0.651 |
| B12 | 0.127 |
| B13 | 0.458 |
| B14 | 0.257 |
| B15 | 0.297 |
| B16 | -0.0301 |
| B17 | -0.00681 |
| B18 | 0.222 |
| B19 | 0.22 |
| B20 | 0.126 |
| B21 | 0.287 |
| B22 | -0.0551 |
| B23 | 0.155 |
| B24 | -0.229 |
| B25 | 0.0254 |
| B26 | 0.183 |
| B27 | 0.00326 |
| B28 | 0.15 |
| B29 | 0.232 |
